# Reference: the supplement of paper PMC3334620
# Over roughly 33,000 sequences, “E-score (-0.5 to 0.5)” has its median near -0.021; the highest 2% begin near 0.32. The list shows a part of the results.
# Target: T1, Zap1 (UniProt P47043)
# T1 sequence: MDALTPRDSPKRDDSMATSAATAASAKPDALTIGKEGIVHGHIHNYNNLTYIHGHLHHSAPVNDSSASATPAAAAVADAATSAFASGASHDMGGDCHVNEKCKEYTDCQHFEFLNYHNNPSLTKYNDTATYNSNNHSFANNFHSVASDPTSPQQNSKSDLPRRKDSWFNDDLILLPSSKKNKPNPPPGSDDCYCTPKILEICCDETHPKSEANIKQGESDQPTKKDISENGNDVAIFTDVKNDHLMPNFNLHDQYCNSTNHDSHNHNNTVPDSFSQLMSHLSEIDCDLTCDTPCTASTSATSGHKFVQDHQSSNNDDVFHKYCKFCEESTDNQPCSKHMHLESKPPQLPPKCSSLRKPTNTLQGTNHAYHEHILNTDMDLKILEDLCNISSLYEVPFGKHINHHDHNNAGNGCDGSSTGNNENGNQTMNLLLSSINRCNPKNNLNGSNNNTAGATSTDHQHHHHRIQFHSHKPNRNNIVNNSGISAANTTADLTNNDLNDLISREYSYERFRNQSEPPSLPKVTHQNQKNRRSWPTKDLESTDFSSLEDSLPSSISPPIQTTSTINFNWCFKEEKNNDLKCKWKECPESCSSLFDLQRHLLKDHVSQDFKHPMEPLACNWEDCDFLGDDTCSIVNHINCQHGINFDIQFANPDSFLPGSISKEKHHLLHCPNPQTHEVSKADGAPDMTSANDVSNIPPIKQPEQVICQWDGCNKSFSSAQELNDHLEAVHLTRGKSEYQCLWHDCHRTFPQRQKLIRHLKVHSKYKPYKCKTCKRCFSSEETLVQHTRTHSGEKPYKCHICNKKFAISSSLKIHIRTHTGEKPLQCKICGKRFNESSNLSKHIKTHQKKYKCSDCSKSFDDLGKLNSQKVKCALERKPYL
# Assay: PBM E-score (8-mer binding enrichment) (E-score (-0.5 to 0.5)); higher = stronger / more preferred TF binding; most listed sequences are background and not binding sites
# Conditions: protein concentration: 200 nM; construct: GST-full length
# Description: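 Universal 'all 10-mer' protein binding microarrays (Agilent AMADID 015681) probed with GST-tagged S. cerevisiae TFs (full-length or DBD) made by in vitro transcription/translation (PURExpress), about 100-200 nM. Bound TF was detected with fluorescent anti-GST. Each ungapped 8-mer (which stands for itself and its reverse complement) is scored by the PBM enrichment score (E-score), a modified Wilcoxon-Mann-Whitney statistic from -0.5 to +0.5, computed with the Universal PBM Analysis Suite. Scale: above 0.35 generally sequence-specific binding.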
row,Sequence,PBM E-score
1,AACGTATC,-0.187
2,CCGGTACC,0.414
3,ATAGAAAC,0.185
4,GTAAGGAC,-0.0105
5,AAGAGCTT,-0.0703
6,GTAACGGA,0.0778
7,GTTTAAAC,0.222
8,ACAGGACG,-0.215
9,AATACTAC,0.198
10,AGTAGACG,0.0189
11,ACGCTATC,-0.235
12,GAAGTGTA,-0.204
13,CCTCCGTC,-0.107
14,GATTCCAA,0.0755
15,ATACTATC,-0.167
16,GCGTGCCA,-0.242
17,CCCAGGAC,-0.0256
18,CGTGTAAG,-0.0832
19,TATGACCA,0.288
20,CGTCGTCA,-0.135
21,TCGAACCA,0.118
22,GCAAGAGA,-0.213
23,ACCGATTC,-0.14
24,GGCGGTTA,0.324
25,GCTCGTAC,-0.135

row,Sequence,PBM E-score
1,CATCTGAA,0.0186
2,GAATCATC,-0.234
3,AGTCAGGC,-0.101
4,ATAGACTG,-0.205
5,CGAAACTC,-0.114
6,AAGGATCT,-0.154
7,CCGGAACG,-0.179
8,AGCAGGAA,-0.0425
9,CTGTGATA,-0.0164
10,ATCCGAAT,0.151
11,AGGCTGGG,-0.0166
12,ACCTCTAA,0.285
13,AATACATG,-0.136
14,CGATATTC,-0.0428
15,TGTATTAA,0.223
16,ACGACCAG,0.0603
17,CTGTGGTC,0.123
18,AGCATTAA,-0.0721
19,AAACCCCA,0.261
20,ACGCGCGC,0.136
21,CTATCAGA,-0.0946
22,ACAACTAC,0.126
23,GTAGTAAA,0.122
24,GTCTTCAC,-0.179
25,CTATCAAG,0.113

row,Sequence,PBM E-score
1,GGGGCCTA,-0.136
2,ACATAATG,0.0777
3,ACGATAAT,0.105
4,ATAATTAC,0.222
5,GTCTTCCA,-0.128
6,ATCCGCAG,0.0242
7,CGCTATAG,-0.238
8,GCACGTAA,-0.0744
9,GTTAGGTA,0.298
10,ATATCGTA,0.0358
11,AAGGACAG,-0.0292
12,CTGCGAAC,-0.0819
13,AATGGAGG,-0.175
14,AGATATAC,-0.0654
15,GCGACGGA,-0.262
16,ACAGGAGG,-0.146
17,ATAGAGCC,-0.181
18,GGCAGGTA,0.0889
19,CCAAGGTA,0.258
20,AAAGACTC,-0.0734
21,CCATGCCG,-0.114
22,ATATTAGA,0.166
23,GTGTTAAA,0.0467
24,AAGGATAA,-0.0167
25,ACCGGCTA,0.034

row,Sequence,PBM E-score
1,GCTTGACC,0.214
2,GGAAGCGA,-0.14
3,AAAGGAGA,-0.118
4,ATGTCCGG,-0.00626
5,AGAAACGC,-0.011
6,TGAATTCA,0.174
7,AGATGTTA,-0.14
8,AAAAAGTT,0.0802
9,GGACATCA,0.0434
10,AGATATGA,0.0313
11,CAGATACG,-0.0298
12,AAACGCCT,-0.318
13,CCACGTCA,-0.208
14,GATCGTGA,0.0072
15,CGCTCAGC,-0.137
16,CGAGTGAA,-0.067
17,GAAATGTA,-0.0667
18,CGTCTGCA,-0.0236
19,CTCGAAGA,0.0261
20,ATCTAGAC,0.0431
21,GTCTGAGA,-0.248
22,CATCTCAA,0.00336
23,GACTTCCA,-0.327
24,AAATCTCA,0.18
25,TGACCGCA,0.232

row,Sequence,PBM E-score
1,CAGAATAC,0.0783
2,CCCCGCAC,-0.0153
3,AATGTAAC,0.194
4,GGAGAGGA,-0.282
5,AGCAAATC,0.00378
6,CCAATCCG,-0.072
7,AGGGTCAC,0.417
8,GAGGGTTA,0.45
9,TAAATGTA,0.137
10,GCCGACCC,-0.0441
11,ACTGTTGC,-0.173
12,AGCTAAGA,-0.167
13,GAGTCAAA,-0.237
14,ACGTCATC,-0.266
15,CATTCTCG,0.0376
16,CCATGGGC,0.0237
17,CACATAAA,0.228
18,ATTGATAC,0.185
19,GGTGTGAC,-0.0885
20,CAACACTC,-0.0692
21,TAGTCAGA,-0.13
22,CGCCCATA,-0.0169
23,GCCGTGTA,-0.0617
24,CGTCGTAG,-0.189
25,CGAGCGAA,-0.162

row,Sequence,PBM E-score
1,GTCGAGAC,-0.0863
2,TTGCCCAA,-0.147
3,AGTCCGTG,-0.261
4,GGCGAGAA,-0.0576
5,CCTTGACC,0.227
6,CTGAACTA,-0.11
7,AACTCATG,0.129
8,GAGGGTCC,0.134
9,AATTGCAG,0.0785
10,TACTCACA,0.0205
11,CGTATGTA,-0.0732
12,ACGGCACG,-0.234
13,GCGCCGAA,-0.187
14,CATGATCC,0.223
15,ACCCAGCC,-0.139
16,TAGTTAAA,0.234
17,GGCGGTCA,0.12
18,AAAGCCGA,-0.219
19,CCTACCTA,0.0396
20,CAGAGCCC,-0.256
21,CCGTGGGA,-0.205
22,CCGACCAC,-0.0404
23,CTGCTAGC,-0.42
24,CTGAATTA,0.0845
25,AAATTACT,0.0438

row,Sequence,PBM E-score
1,AGCGCAAT,0.0635
2,ACTAGGAC,-0.037
3,AGATCTTG,-0.0733
4,AACTCTGA,0.0729
5,AACCAGAA,0.219
6,GAAAGTGA,-0.0718
7,AGGCATAA,-0.124
8,CTGCACTA,0.0904
9,CAATATAG,0.138
10,CAGAAAGC,-0.078
11,AAGTCCGT,-0.0811
12,ACGTCGAA,-0.105
13,GGTTTAAA,0.18
14,GTGCACAA,-0.0541
15,ATTGTCTG,0.144
16,ATGGTCGG,0.173
17,AGTACCGC,0.247
18,CGTTATGC,-0.0965
19,CTTACTGA,-0.0873
20,CCCGATAG,-0.0131
21,ATCTACAC,0.112
22,CGGCCTAC,-0.00197
23,ACTTTGTA,0.209
24,CAATTCCA,-0.0645
25,CCCCTACC,0.0857

row,Sequence,PBM E-score
1,ACAAAAAG,0.141
2,ACAAGCAT,-0.136
3,GAAGTAGA,0.00766
4,ATGCTGAC,-0.0875
5,CGATGCTC,-0.255
6,TAAACGGA,0.104
7,TCACTGCA,0.0966
8,AGCCACAG,-0.199
9,CGATACGA,0.0895
10,ACTTTTAT,0.0181
11,AATAAGAT,-0.0599
12,TGGGTACA,0.174
13,TAGCGTGA,0.0134
14,GGGTAATA,0.348
15,ATCATTTG,0.0524
16,TTAGCGAA,0.0536
17,CATTGAAG,-0.213
18,CGGCTCGC,-0.0535
19,CAGCAAAC,0.139
20,CCCTACTA,0.0859
21,GATATGTA,0.0232
22,CTCCATTA,-0.114
23,AGGCAGCA,-0.141
24,CGTGCCAG,-0.316
25,AAGGTGAT,0.296

row,Sequence,PBM E-score
1,CCGACGAC,-0.00208
2,AATATAAT,-0.0639
3,CCTTAGAC,0.0339
4,ACCACAAA,0.35
5,ATCGTCCC,0.0745
6,CCCTCCAG,0.215
7,AACCTCGC,0.295
8,GACCGAGA,-0.0995
9,AAGCGTCG,-0.338
10,GTTGCCGA,-0.0812
11,CGTCTTCC,-0.255
12,GCCATCAA,-0.0506
13,TAACTTGA,0.194
14,CCTACGCA,-0.125
15,AGCCTACT,-0.212
16,AGTCGCTC,-0.182
17,CAGCATTC,-0.223
18,ACTTCTGG,-0.0196
19,ATCTGAAC,0.0088
